# From PubChem BioAssay AID504332 (National Center for Advancing Translational Sciences (NCATS), 2011)
# The whole screen tested about 350,000 compounds, of which about 31,000 (8.9%) were called active. The inconclusive results got no clear call from the source; some entries with a clear call stand among them for comparison. The call rests on the fitted dose curve; in most records, active means well fitted inhibition curve with a large enough effect; inconclusive means small, poorly fitted or top-dose-only effect; inactive means no such curve, though single readings can be large or run the other way. A potency beside an inconclusive call is a rough fit, not a confirmed value.
# Target: Histone-lysine N-methyltransferase EHMT2 (Homo sapiens) (UniProt Q96KQ7)
# Experiment: qHTS Assay for Inhibitors of Histone Lysine Methyltransferase G9a; further: nearly all actives have a fitted effect of over 75% in size
# Conditions: G9a H3K9 monomethylation, AlphaScreen, 2 h; activity, negative = inhibition: at 59 µM (top of the series) unless noted
# Summary of the method: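 AlphaScreen detection with an anti-monomethyl H3K9 antibody quantified product after a 2 h room-temperature reaction containing 500 nM biotinylated H3K9 peptide, 20 µM SAM and 20 nM enzyme, which had been preincubated 15 min with compound.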
# On the % scale 0 is the no-effect control and ±100 the full control effect; potency means the concentration at half of the fitted maximal effect; tags describe the fitted curve by direction and shape.
# UniProt Q96KQ7, sequence (Q96KQ7 whole entry, looked up): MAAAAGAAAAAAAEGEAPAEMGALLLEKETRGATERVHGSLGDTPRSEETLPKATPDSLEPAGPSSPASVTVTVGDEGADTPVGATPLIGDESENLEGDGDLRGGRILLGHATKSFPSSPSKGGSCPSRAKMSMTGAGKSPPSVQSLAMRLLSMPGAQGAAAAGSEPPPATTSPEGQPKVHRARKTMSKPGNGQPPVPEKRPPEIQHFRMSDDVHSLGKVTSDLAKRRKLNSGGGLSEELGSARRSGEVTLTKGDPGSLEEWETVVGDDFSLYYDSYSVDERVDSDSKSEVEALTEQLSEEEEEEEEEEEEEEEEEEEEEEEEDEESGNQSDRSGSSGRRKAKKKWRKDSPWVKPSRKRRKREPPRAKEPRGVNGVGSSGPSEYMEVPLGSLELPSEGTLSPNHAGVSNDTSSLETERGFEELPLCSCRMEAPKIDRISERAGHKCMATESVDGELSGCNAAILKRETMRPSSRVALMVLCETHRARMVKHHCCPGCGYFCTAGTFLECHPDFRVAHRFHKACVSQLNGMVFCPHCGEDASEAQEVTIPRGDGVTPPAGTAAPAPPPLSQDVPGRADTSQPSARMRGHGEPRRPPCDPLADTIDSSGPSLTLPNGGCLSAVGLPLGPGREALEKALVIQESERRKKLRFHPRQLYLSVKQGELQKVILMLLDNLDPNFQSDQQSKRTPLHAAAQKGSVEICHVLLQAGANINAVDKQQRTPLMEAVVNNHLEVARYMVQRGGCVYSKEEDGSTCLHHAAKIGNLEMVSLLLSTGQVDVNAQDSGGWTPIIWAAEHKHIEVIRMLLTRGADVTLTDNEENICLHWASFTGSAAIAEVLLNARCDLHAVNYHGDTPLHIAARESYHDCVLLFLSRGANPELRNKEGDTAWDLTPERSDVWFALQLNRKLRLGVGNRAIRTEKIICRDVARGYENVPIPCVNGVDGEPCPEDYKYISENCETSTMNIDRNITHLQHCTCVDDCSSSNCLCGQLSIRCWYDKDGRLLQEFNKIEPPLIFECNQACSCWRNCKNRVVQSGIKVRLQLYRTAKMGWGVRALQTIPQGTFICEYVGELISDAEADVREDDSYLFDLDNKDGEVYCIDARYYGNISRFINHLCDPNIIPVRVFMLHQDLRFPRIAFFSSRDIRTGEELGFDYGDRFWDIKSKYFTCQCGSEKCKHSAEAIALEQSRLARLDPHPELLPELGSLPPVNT
Compound,Potency,"activity, negative = inhibition"
Cc1ncc([N+](=O)[O-])n1CC(=O)NC(C)(C)C,"inconclusive: 20 µM [inhibitor, partial curve, poor fit]",
O=C(Nc1ccccc1N1CCCC1)c1cc(S(=O)(=O)N2CCOCC2)ccc1Cl,active: 50.1 µM,
CCOC(=O)C1CCN(C(=O)C2CCN(C(=O)c3ccc([N+](=O)[O-])cc3)CC2)CC1,,inactive: 50.7% [at 102 µM]
Cc1cc(=O)[nH]c(N=N/C(=N/Nc2ccc(O)cc2)c2ccccc2)n1,active: 0.562 µM,
O=C(O)COc1ccccc1/C=N/NC(=O)c1ccncc1,,inactive: 5.18% [at 12.7 µM]
O=C(Nc1cc(Cl)ccc1-n1cncn1)c1ccc(F)c(S(=O)(=O)N2CCOCC2)c1,"inconclusive: 89.1 µM [inhibitor, partial curve, poor fit]",
CCC1CCCCN1CCCNC(=O)c1ccc2c(c1)sc1nc(-c3ccc(F)cc3)cn12 (stereo unspecified),,inactive: 12.9%
CCn1c(SCC(=O)NC(=O)Nc2ccc3c(c2)OCCO3)nnc1-c1cccs1,"inconclusive: 31.6 µM [inhibitor, single point]",
CCC/C=C(\CCC)C(NS(=O)(=O)c1cccc2cccnc12)c1ccc(C(=O)OC)cc1 (stereo unspecified),"inconclusive: 89.1 µM [inhibitor, single point]",
Cc1ccc(S(=O)(=O)NNC(=S)NC(=O)c2ccc([N+](=O)[O-])cc2)cc1,"inconclusive: 7.94 µM [inhibitor, full curve, poor fit]",
CCOP(=O)(OCC)c1cccc(P(=O)(c2ccccc2)c2ccccc2)c1O,,inactive: 6.53% [at 102 µM]
Cc1nccn1CC(=O)N/N=C/c1cc(Br)cs1,,inactive: 10.6% [at 12.7 µM]
COC(=O)c1sc(NC(=O)CSc2nc3cccnc3n2C)nc1C,,inactive: 5.32% [at 102 µM]
N#C/C(=C\C=C\c1ccccc1[N+](=O)[O-])C(=O)NC1CCCCC1,"inconclusive: 28.2 µM [inhibitor, single point]",
O=C1CCCN1CCCNc1ncnc2c1cnn2-c1ccc(Cl)cc1,"inconclusive: 31.6 µM [inhibitor, partial curve, poor fit]",
C=CCn1c(COc2cccc(C)c2C)nnc1SCC(=O)N1CCN(c2ccccc2)CC1,active: 3.98 µM,
Cn1c(=O)c2sccc2n2c(CCC(=O)Nc3ccc(F)cc3)nnc12,,inactive: -32.1%
O=C(O)CS(=O)(=O)CC(=O)O,"inconclusive: 79.4 µM [inhibitor, single point]",
C/C(=N\NS(=O)(=O)c1ccc(Cl)cc1)c1ccc(O)cc1,"inconclusive: 79.4 µM [inhibitor, single point]",
COc1ccc2c(c1)c(=O)c(C(=O)c1ccc(C)cc1)cn2Cc1ccccc1F,,inactive: -4.77%
CC(C)Cn1c(CN(C)Cc2ccccc2)nc2c1c(=O)n(C)c(=O)n2C,"inconclusive: 31.6 µM [inhibitor, full curve]",
O=C(NC(=S)Nc1ccc2oc(=O)ccc2c1)c1cccc(F)c1,"inconclusive: 89.1 µM [inhibitor, single point]",
O=C(Nc1ccc(F)cc1)C(c1ccccc1)N1CCN(CC(=O)N2CCCC2)CC1 (stereo unspecified),"inconclusive: 10 µM [inhibitor, partial curve, poor fit]",

Compound,Potency,"activity, negative = inhibition"
CC(C)Oc1cccc(C(=O)C2CCCN(C(=O)c3ccoc3)C2)c1 (stereo unspecified),"inconclusive: 31.6 µM [inhibitor, partial curve, poor fit]",
O=S(=O)(NCC1NCCc2ccccc21)c1ccccc1 (stereo unspecified),"inconclusive: 89.1 µM [inhibitor, single point]",
CN(C)C(CNc1ccc(S(C)(=O)=O)cc1[N+](=O)[O-])c1ccccc1 (stereo unspecified),,inactive: -9.42% [at 102 µM]
Clc1cccc(OCCCCN2CCCCC2)c1,"inconclusive: 79.4 µM [inhibitor, single point]",
Cc1ccc(NS(=O)(=O)c2cccc(C(=O)n3ncc(C#N)c3N)c2)c(C)c1,,inactive: 11.1%
CCCCOc1ccc(NC(=O)CN2CCN(C(=O)OCC)CC2)cc1,active: 2.51 µM,
Cc1ccc(C)c(S(=O)(=O)Nc2cc3c4c(c2)CCC(=O)N4CCC3)c1,"inconclusive: 89.1 µM [inhibitor, single point]",
Cc1nc2c3ccccc3nc(NNC(=O)CCC(=O)N3CCCC(C)C3)n2n1 (stereo unspecified),"inconclusive: 79.4 µM [inhibitor, single point]",
O=C(CSc1ncn[nH]1)Nc1ccc([N+](=O)[O-])cc1Br,"inconclusive: 12.6 µM [inhibitor, partial curve, poor fit]",
CCOC(=O)N1CCN(C(=O)c2cn(CC)c3cc(N4CCN(C)CC4)c(F)cc3c2=O)CC1,active: 14.1 µM,
CCOc1ccc(N(CC(=O)N2CCCC2)S(=O)(=O)c2ccc(Cl)cc2)cc1,,inactive: 19.4% [at 102 µM]
CCOC(=O)c1oc2cc(O)ccc2c(=O)c1-c1ccccc1OC,,inactive: -4.09%
Cc1cccc(-c2nnc(SCCC(=O)N3CCOCC3)o2)c1,"inconclusive: 79.4 µM [inhibitor, single point]",
COc1ccc2c(c1)-c1nc(/N=C/c3ccc(O)c(OC)c3)sc1CC2,"inconclusive: 1 µM [inhibitor, full curve, poor fit]",
Cc1cc(C(=O)COC(=O)Cc2ccc(Br)cc2)c(C)n1C,"inconclusive: 39.8 µM [inhibitor, single point]",
O=C(NCc1ccco1)C1CCN(C(=O)c2ccc(Cl)cc2Cl)CC1,,inactive: -5.62%
CC(=O)[C@@H]1[C@@H](C(=O)c2ccccc2)[C@]2(C(=O)Nc3ccccc32)[C@H]2C=Cc3cc(F)ccc3N12,active: 8.91 µM,
CCCC(c1nnnn1CCOC)N1CCN(Cc2ccccc2)CC1 (stereo unspecified),"inconclusive: 39.8 µM [inhibitor, single point]",
CCOc1cc2[nH]c(=S)n(CCN3CCCCC3CC)c(=O)c2cc1OCC (stereo unspecified),active: 56.2 µM,
O=C(Nc1ccncc1)c1cc(-c2cccc(Br)c2)nc2ccccc12,"inconclusive: 50.1 µM [inhibitor, partial curve]",
CC1CCC(C(=O)NNC(=O)c2cc(-c3ccco3)[nH]n2)CC1 (stereo unspecified),,inactive: 42.8%
CC(NS(=O)(=O)c1ccc(OCC(=O)NCc2ccccn2)cc1)c1ccccc1 (stereo unspecified),,inactive: -0.632% [at 102 µM]
CNS(=O)(=O)c1cn(CC(=O)N2CCN(c3ccc(C)cc3C)CC2)cc1S(=O)(=O)NC,"inconclusive: 7.08 µM [inhibitor, partial curve, poor fit]",
